The other results are listed elsewhere or left out.

First the molecules themselves.
B1: chr5:4754414:4754415:-_ENSMUSG00000044674_ENSMUST00000054294|mus_mus|motif|central (ssRNA)
RNA: GGGAGUUCUACAGUCCGACGAUCGAGUAAGCAAAGUGUAUUGUUGAUUGUGUACAACUUUUAGAUUGCAAAGACACAUCGGAUUGCAGUUUGGCUAAAACCAGAAAACAGCGUUUCACUUGGAGUAACUCCACUUCACUGAAACAACAGAGGAUUGAGCAUCA
B2: chr18:58099821:58099822:+_ENSMUSG00000024597_ENSMUST00000115366|mus_hu|FALSE|FALSE (ssRNA)
RNA: GGGAGUUCUACAGUCCGACGAUCAUUUUCUUUCUUUGGUUUGGUAUUGAUAUCUCCUAGAACCAUGAUAUCAGAAAAGUCUAUCCGGAACUUGCUAAGCAAAGUAGCCAUCGCUCUCCGGUCAUGGUCUAUUCUGUUUAUCUUCAACAGAGGAUUGAGCAUCA
B3: chr7:151048522:151048523:+_ENSG00000013374_ENST00000566856|hu_mus|hu_hu_hu_mus_True|1_58 (ssRNA)
RNA: GGGAGUUCUACAGUCCGACGAUCCUGUUUCUUAUUUAUUACGAUCUUGAUGUAAUUUUCUUGAAAUCCGAAAGUUUCAGCUAUUUUACACCUCAGGUCUCUACCAGUGACAUGCAAGCGGGUCUCCAACAAGCUUUUCCUAUCCAACAGAGGAUUGAGCAUCA
B4: chr1:90180218:90180219:+_ENSG00000171488_ENST00000370454|hu_hu|FALSE|FALSE (ssRNA)
RNA: GGGAGUUCUACAGUCCGACGAUCACAUGUGAUGGAAAAAUACUGUAAACUUUGUAGAACUCCAAUUUCAGGGGGGAUAAAUCGAAUGUCAUUGUACGAUAAGUCCAAGUAUCGGAUCUUGUUGCAUAGGAAGAGGUGGGAAGGCAACAGAGGAUUGAGCAUCA
B5: chr1:163117127:163117128:-_ENSG00000143248_ENST00000313961|hu_mus|hu_hu_hu_mus_False|48_88 (ssRNA)
RNA: GGGAGUUCUACAGUCCGACGAUCUGCUACAAAGGAUGUAACUCAACACUCACAGGAACUUUUGGAAGCCUGACCAGAUGACUACUUGAUUAACUCCUUAUAAAAUUCAGAGCGCACAAAGCGGGGCAGAGAAUCCUUCUCCAUCAACAGAGGAUUGAGCAUCA
B6: chr1:89687925:89687926:+_ENSMUSG00000026289_ENSMUST00000027512|mus_mus|motif|central (ssRNA)
RNA: GGGAGUUCUACAGUCCGACGAUCUUUUCUGGGAGGACACAUCAUUCUCCAAGAUGGGCCGUGGGGUCCCACGGUGCUCCGGAGGGUGCAGCAUCAAGGCUGUGCCCACAGCACAGCUCUGCUUCCUUUGUCCACACUGACAACCAACAGAGGAUUGAGCAUCA
B7: 11932039_11935560_1758_CDS_ENSG00000134324_ENST00000256720|human|control|control (ssRNA)
RNA: GGGAGUUCUACAGUCCGACGAUCAGCCAAGCACUGCUCUGGCUUACUUUCCUCCUUGAUUGUGGUGUUUCUUCCCCUCCAUGAAAACCACCAUCUUCCUCCCUUUUUGGGCAUUUUAUCCCUCAUGAUAGAUUCCACAGUGGCCAACAGAGGAUUGAGCAUCA
B8: chr17:5392700:5392701:+_ENSG00000167842_ENST00000573759|hu_mus|motif|central (ssRNA)
RNA: GGGAGUUCUACAGUCCGACGAUCGCUCUGAAGUUUUCUGCAGCUCUGGACCAGGGAUGCCAAACUCUCCCUAAAGUUACGGGUUCCUUGAUAUCUGCCGAUGUUUUCAAGCUCAUCAAAGAAAGUCAAGGUCUCUCUGAGUUUCAACAGAGGAUUGAGCAUCA
B9: chr3:150289932:150289933:+_ENSG00000144895_ENST00000460851|hu_hu|hu_hu_hu_mus_False|18_108 (ssRNA)
RNA: GGGAGUUCUACAGUCCGACGAUCCUUGUAGUUUUUCACAUCCCAUACUUCCAUUUGUCCUCGAAGAUUUCCAAAUCCAGCCAGCACUAAUAUAUGUCCAUGAGGGCUAUAGAAGGCUGCAUUACGAGGACCAGUCCCAAAGUCCAACAGAGGAUUGAGCAUCA
B10: chr4:148551591:148551592:-_ENSMUSG00000063077_ENSMUST00000060537|mus_hu|mus_mus_mus_hu_False|8_108 (ssRNA)
RNA: GGGAGUUCUACAGUCCGACGAUCACCUUACAAAAUUAAAUAUCCCUGUAAAUUAGACAAUAAGCAGCAGGCAACAAAGUCUUUGCUUUGGAAUAUGUGCCAGGAAAAGUCAUCUUGUUUUUAGAUCACACCUUUCAGUUCACACAACAGAGGAUUGAGCAUCA
B11: chr7:141438946:141438947:+_ENSG00000106028_ENST00000265304|hu_mus|hu_hu_hu_mus_True|1_108 (ssRNA)
RNA: GGGAGUUCUACAGUCCGACGAUCGACUACCUGUAAUUAACACAGGUCUUCGAAACAUGGCUUCUGUUUUUCUUACAACCUAAUCUUUAGGCUUUUCCUAAAGGAAAGAAAGAAAAGAGAAAAAUGAUAAAUCAAGAACUUCCGCAACAGAGGAUUGAGCAUCA
B12: chr10:75834556:75834557:+_ENSG00000035403_ENST00000372755|perfect_dup|FALSE|FALSE (ssRNA)
RNA: GGGAGUUCUACAGUCCGACGAUCGUUAAUUUCAGCACUCAUCUUUUCUACAGUAAAAUUUCGAUUUUUCAAAGCUUCUUCUAUUCCUUGGUUUUUUGAGUUUUUGGUUGUAACAAAAAUCUUCAUAGCUGAAAUGAGAACAGGCAACAGAGGAUUGAGCAUCA
B13: chr2:191769783:191769784:+_ENSG00000115419_ENST00000338435|hu_hu|FALSE|FALSE (ssRNA)
RNA: GGGAGUUCUACAGUCCGACGAUCAACAUAUCGAUGCACAUAUUCAGUUCCAAGAUCAUUAACAGCAAUGGCAUAUUUCAAAGGUUUUACACAGGACUGAAGACAGAAGGGAACUUUGGUAUCUCCAGUAGAAUGCCUCUGUCCCAACAGAGGAUUGAGCAUCA
B14: chr2:166767530:166767531:+_ENSMUSG00000002718_ENSMUST00000002790|mus_mus|motif|central (ssRNA)
RNA: GGGAGUUCUACAGUCCGACGAUCAAAUAUUUCUUGUAAUGCUAGUGCCCCAUACUUAAUGCAAUAUAAGUUAAUAAACACGGAGAAACUCUUGAUAAACUUGGUGGUCUUGGAGUUUUGCAGUCUCUGGAAUAGUAGAAUGAACAACAGAGGAUUGAGCAUCA
B15: chrX:77158196:77158197:+_ENSG00000131174_ENST00000481445|hu_hu|FALSE|FALSE (ssRNA)
RNA: GGGAGUUCUACAGUCCGACGAUCUCCGACUUGUGUUGCUACAUAUGUCCAUGUAACAAUACAGAAAGUGGCUCCACUAGCUAAUACAGCAUUACCGUAUUUGUCAUGAAAAUCAGGUGUACGUUUCUGGUGGCUCUGCCUUGCCAACAGAGGAUUGAGCAUCA
B16: chr9:107755404:107755405:-_ENSMUSG00000032582_ENSMUST00000035201|mus_hu|motif|central (ssRNA)
RNA: GGGAGUUCUACAGUCCGACGAUCCUCUAUAAUCCAUAGAAGUACCAUCUCCACCCCUAUAGUCCAUAGGUGGUCCUUCUCGGUCCCGAAAAUCCCCAGAAUGUAUGUCCCUACCCCUGAAGUCCAACUGUGAUGAAUCUCUGCCAACAGAGGAUUGAGCAUCA
B17: chr12:121221538:121221539:-_ENSG00000157837_ENST00000353487|hu_hu|motif|central (ssRNA)
RNA: GGGAGUUCUACAGUCCGACGAUCAGGUGAGCAGGGUCUUGUUAAAUACUGGCACAUCGGGAGGAGAAGAAAAGCAAAAGCGGUCGUUGCAAGAACUGCUGUACAUAUUGUAAAAACUACUUGAACUGAGUCAAAGAAGAAGAACAACAGAGGAUUGAGCAUCA
B18: chr3:88516089:88516090:+_ENSMUSG00000028060_ENSMUST00000029696|mus_mus|motif|central (ssRNA)
RNA: GGGAGUUCUACAGUCCGACGAUCAUUGACCCAAUAGUAGUAAAAUACAAAUAAAACUUUCUUUACAACAGAGUUGAGGCGGUUCAUUUGGAAAAGGCUAGAUCAGGUCAAACAUAUGUAGCAAUGACUCUGUCCUGGUAUCUCCAACAGAGGAUUGAGCAUCA
B19: chr8:80577299:80577300:+_ENSG00000104435_ENST00000220876|hu_hu|FALSE|FALSE (ssRNA)
RNA: GGGAGUUCUACAGUCCGACGAUCGUAUUUUUUAACAAAAAUGUAAGUAUUUACAAAAUAAGAUCCAAGGUAUUUUUUAAACAUCAAGCAAAACAUUCUGCAAAGAGACCGCAUUGAUUUUUUUUAAUUUUUGAUUUUUUUUGUCAACAGAGGAUUGAGCAUCA
B20: chr16:94913618:94913619:+_ENSMUSG00000022897_ENSMUST00000122284|mus_hu|motif|central (ssRNA)
RNA: GGGAGUUCUACAGUCCGACGAUCGUCAUGUAAUGUGCAGGACCUGUAUUAGCAGAAAAUUGGUAUGUUGGAUGUCCAGCGGUGCCAGUCUCUUGGCGGGGAUUGGAGUAGACGGUCAAAUUAACGUCCAUAGCUCCAUUCUGUCAACAGAGGAUUGAGCAUCA
B21: chr2:32088997:32088998:+_ENSMUSG00000039262_ENSMUST00000036691|mus_mus|FALSE|FALSE (ssRNA)
RNA: GGGAGUUCUACAGUCCGACGAUCUCCCCCUUAAGGAAGCUUAGACCCAGAAGUGUUCUGUGAACUCUGAAUUUGAAAAUGCUAAACUUGGGAAUCAGACAAGGAAAGCAACUGUUAAGAGACCAGACUAAAUGCAGUCGGCAGCAACAGAGGAUUGAGCAUCA
B22: chr3:9412954:9412955:+_ENSG00000134077_ENST00000452837|hu_mus|hu_hu_hu_mus_False|78_108 (ssRNA)
RNA: GGGAGUUCUACAGUCCGACGAUCGGUUGAUACAUCCUCUUUGAUGGCUGGAUUUUCAUAAUAAUCUAAGAUAUGUGAAUCUGAAGUGCUGCUGGCAUGCUUUUUCUUACCAUCUUUCUCAUCUGCUUUGUCUCCUUGUCCACACAACAGAGGAUUGAGCAUCA

In this assay the target is T1, UNK ZnF1-3 (human, UniProt Q9C0B0 31-174).
T1 sequence: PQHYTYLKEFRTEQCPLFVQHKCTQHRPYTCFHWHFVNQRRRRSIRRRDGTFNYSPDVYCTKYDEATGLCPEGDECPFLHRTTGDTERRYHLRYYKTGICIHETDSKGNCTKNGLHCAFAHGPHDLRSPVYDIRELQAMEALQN
Put plainly: nsRBNS (natural sequence RNA bind-n-seq); RBNS binding buffer (assumed for nsRBNS): 25 mM Tris pH 7.5, 150 mM KCl, 3 mM MgCl2, 0.01% Triton X-100, 500 ug/ml BSA, 20 U/ml SUPERase-In, 4 C; UNK is unkempt and MSI1 is Musashi-1; names of the RNAs are library labels; protein concentration not given here; high values mean tight binding.
For the molecule B1, the binding signal stood at 0.651 enrichment R.

As for B2, the binding signal came to 0.304 enrichment R.

B3: the binding signal turned out to be 0.832 enrichment R.

In turn, B4 gave a binding signal of 1.66 enrichment R.

Consider B5, for which the binding signal came to 1.43 enrichment R.

With B6, the binding signal stood at 1.15 enrichment R.

In the case of B7, the binding signal stood at 0.928 enrichment R.

B8 returned a binding signal of 0.825 enrichment R.

As to B9, the binding signal came out at 1.21 enrichment R.

For B10, the binding signal worked out at 1.25 enrichment R.

Consider B11, for which the binding signal is 0.678 enrichment R.

B12 registered a binding signal of 0.841 enrichment R.

As to B13, the binding signal is 1.5 enrichment R.

B14 displayed a binding signal of 1.18 enrichment R.

B15 showed a binding signal of 0.708 enrichment R.

Molecule B16 returned a binding signal of 0.989 enrichment R.

Turning to B17, the binding signal came to 2.8 enrichment R.

In the case of B18, the binding signal was found to be 2.66 enrichment R.

For B19, the binding signal was 1.97 enrichment R.

B20: the binding signal came out at 0.918 enrichment R.

For the molecule B21, the binding signal was found to be 1.8 enrichment R.

Consider B22, for which the binding signal was determined as 0.579 enrichment R.
